# Measured values taken from PubChem BioAssay AID651820 (National Center for Advancing Translational Sciences (NCATS), 2012).
# Among all 340,000 compounds or so, about 12,000 (3.5%) were called active. This list was built around the results that the source calls inconclusive (neither active nor inactive); the mix of calls is not that of the screen. The call rests on the fitted dose curve; in most records, active means well fitted inhibition curve with a large enough effect; inconclusive means small, poorly fitted or top-dose-only effect, or another doubt; inactive means no such curve, though single readings can be large or run the other way. No potency is given beside an inconclusive call; the fits are too rough.
# Assay: qHTS Assay for Inhibitors of Hepatitis C Virus (HCV)
# Conditions: Huh7.5.1 HCVcc-Cre (HCVcc is cell-culture hepatitis C virus) infection, luciferase reporter, 44 h; series mostly up to 41.8 µM
# Method in brief: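 1,000 cells/well; 4 h culture; + compound; + HCVcc-Cre (~0.5 moi); 44 h; luciferase substrate, RT 15 min; read 15 sec.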
# Potency means the concentration at half of the fitted maximal effect; tags describe the fitted curve by direction and shape.
row,Structure (SMILES),Potency
1,CC1CCCCC12NC(=O)N(CC(=O)N1CCN(Cc3ccc(C#N)cc3)CC1)C2=O (stereo not given),active: 10 µM
2,CC(C)CNC(=S)N(CCN(C)C)Cc1cc2cc3c(cc2[nH]c1=O)OCO3,active: 4.47 µM
3,CCN(c1ccccc1)S(=O)(=O)c1cccc(C(=O)N2CCN(S(=O)(=O)c3ccccc3)CC2)c1,"inconclusive [inhibitor, single point]"
4,CN(C)S(=O)(=O)c1ccc(N2CCCC2)c(C(=O)Nc2ccccc2)c1,inactive
5,O=C(Nc1ccc(Cl)cc1)N(Cc1cccs1)Cc1cccs1,"inconclusive [inhibitor, single point]"
6,Cn1c(=O)c(/C=C/c2ccc(F)cc2)nc2ccccc21,"inconclusive [inhibitor, full curve, poor fit]"
7,CCn1c2ccccc2c2cc(NC(=O)COC(=O)c3cccc(S(=O)(=O)NC)c3)ccc21,"inconclusive [inhibitor, single point]"
8,Cc1cc(Cl)c2oc(C(=O)N(C)C3CCOC3)c(C)c2c1 (stereo not given),"inconclusive [inhibitor, single point]"
9,O=C(Nc1cccc(-n2cnnn2)c1)c1cc(Cl)nc(Cl)c1,"inconclusive [inhibitor, full curve, poor fit]"
10,O=C(Nc1nnc(C2CC2)s1)C1=NN(C2CCS(=O)(=O)C2)C(=O)CC1 (stereo not given),"inconclusive [inhibitor, single point]"
11,Cc1ccc(-n2c(N)c(C(N)=O)sc2=S)cc1,inactive
12,CCn1cc(CNC(=O)NC2CCCCC2)c(C)n1,inactive
13,O=C(OCC(=O)N1CCc2ccccc21)c1c2c(nc3ccccc13)CCCCC2,active: 2.82 µM
14,CCOc1ccc(C(=S)N2CCCC2)cc1,inactive
15,Cc1cc(=O)oc2c(C)c(OC(C)C(=O)Nc3ccc(N4CCC(C)CC4)cc3)ccc12 (stereo not given),"inconclusive [inhibitor, full curve, poor fit]"
16,O=C(Nc1ccc(-c2csc(Nc3ccc(Cl)cc3)n2)cc1)c1cccc(C(F)(F)F)c1,active: 11.2 µM
17,COc1c(F)c(F)c(C(=O)Nc2ccc(N3CCN(C(C)=O)CC3)c(Cl)c2)c(F)c1F,"inconclusive [inhibitor, partial curve]"
18,CCOC(=O)C1CCCN(c2c(NCCc3ccc(S(N)(=O)=O)cc3)c(=O)c2=O)C1 (stereo not given),inactive
19,Cc1ccccc1/C=C/C(=O)c1ccc([N+](=O)[O-])o1,"inconclusive [inhibitor, single point]"
20,CCCCN(C(=O)c1cccc(-n2cccc2)c1)c1c(N)n(CCCC)c(=O)[nH]c1=O,"inconclusive [inhibitor, partial curve]"
21,CCn1c(SCc2nc3ccccc3[nH]2)nnc1-c1cccs1,inactive
22,CC(C)(C)OC(=O)NCCCC[C@H](NC(=O)c1[nH]cnc1C(=O)Nc1ccc(Cl)cc1)C(=O)OC(C)(C)C,"inconclusive [inhibitor, single point]"
23,CC(C)c1ccc(NC(=O)C2CC3CCC2C3)cc1 (stereo not given),"inconclusive [inhibitor, single point]"

row,Structure (SMILES),Potency
1,CC(=O)c1ccc(NS(=O)(=O)c2cccc(C)c2)cc1,inactive
2,CCN(CC)S(=O)(=O)c1ccc(-n2cnc3cc(C)c(C)cc32)nc1,"inconclusive [inhibitor, single point]"
3,O=C(CN1CCCC1)Nc1ccc(-c2nc3cc(NC(=O)CN4CCCC4)ccc3o2)cc1,"inconclusive [inhibitor, full curve]"
4,CCOC(=O)C(CC)Sc1nc2c(c(=O)[nH]c(=O)n2C)n1C/C=C(/C)Cl (stereo not given),"inconclusive [inhibitor, partial curve]"
5,CC(=O)c1cccc(NC(=S)NC2CCCCC2)c1,"inconclusive [inhibitor, single point]"
6,Cc1ccc(-c2cn(-c3ccccc3)c3[n+]2CCCS3)cc1,"inconclusive [inhibitor, single point]"
7,Oc1ccccc1CN(Cc1ccco1)CC(O)COCc1ccc(Cl)cc1 (stereo not given),"inconclusive [inhibitor, single point]"
8,CC(=O)c1c(C)[nH]c(C(=O)OCC(=O)Nc2cccnc2Cl)c1C,"inconclusive [inhibitor, partial curve]"
9,CCC(C)N1C(=O)NC(=O)C2(Cc3c(ccc4ccccc34)N(C)C2)C1=O (stereo not given),"inconclusive [inhibitor, single point]"
10,COc1cc(NC(=O)CSc2nc3ccccc3cc2Cc2ccccc2)cc(OC)c1,"inconclusive [inhibitor, partial curve, poor fit]"
11,COc1ccc(Nc2nc3ccccc3n3cnnc23)cc1,active: 20 µM
12,Cc1ccnc(NC(=O)C(Cc2ccccc2)NC(=O)c2ccccc2)c1 (stereo not given),"inconclusive [inhibitor, single point]"
13,COc1ccc(NC(=O)CN2CCC(n3c(C)nc4cc(F)ccc43)CC2)c(OC)c1,inactive
14,Cc1cccc(NC(=O)c2ccc(OCc3c(C)noc3C)cc2)c1,"inconclusive [inhibitor, single point]"
15,O=C(Nc1ccc(F)cc1)c1nsc(Cl)c1Cl,"inconclusive [inhibitor, single point]"
16,CSc1ccccc1NC(=O)CN(C)Cc1ccc(Br)cc1,"inconclusive [inhibitor, single point]"
17,COc1cc(/C=C/C(=O)Nc2nnc(CC(C)(C)C)s2)cc(OC)c1OC,inactive
18,O=C(/C=C/c1ccccc1)Nc1cccc(C(=O)NCCCCc2ccccc2)c1,active: 2.51 µM
19,COc1ccc(CCNC(=O)CCSc2nc(-c3ccco3)cc(C(F)(F)F)n2)cc1,"inconclusive [inhibitor, full curve, poor fit]"
20,Cc1onc(-c2c(Cl)cccc2Cl)c1C(=O)N1CCOCC1,inactive
21,Cc1occc1C(=O)N1CCCC(Nc2ccc(C(C)C)cc2)C1 (stereo not given),inactive
22,Cc1oc(-c2ccc(C(F)(F)F)cc2)nc1CN(Cc1ccccn1)C[C@@H]1CCC(=O)N1,"inconclusive [inhibitor, single point]"
